Assay results reported in patent US20200048324A1 (SURROZEN OPERATING, published 2020).

Target: T1, human asialoglycoprotein receptor 1 (ASGR1) (human, UniProt P07306 1-291)
T1 sequence (looked up): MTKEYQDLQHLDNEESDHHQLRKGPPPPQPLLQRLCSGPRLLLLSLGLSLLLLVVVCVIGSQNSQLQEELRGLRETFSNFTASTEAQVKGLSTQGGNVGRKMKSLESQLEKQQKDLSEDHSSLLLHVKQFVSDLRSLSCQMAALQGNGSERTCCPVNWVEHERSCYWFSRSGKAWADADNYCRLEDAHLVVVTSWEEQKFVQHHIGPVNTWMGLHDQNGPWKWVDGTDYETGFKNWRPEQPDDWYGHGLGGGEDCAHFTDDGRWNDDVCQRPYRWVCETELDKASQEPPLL
Test: cell-based or functional assay

B1: anti-ASGR1, Rspo2 (F105A/F109A) (scFv)
chain: [skipping about 100 residues]DFSSRRWYLEYWGQGTLVTVSSGGGGSGGGGSGGGGSELTQDPAVSVALGQTVRITCQGDSLRSYYASWYQQKPGQAPVLVIYGKNNRPSGIPDRFSGSSSGNTASLTITGAQAEDEADYYCNSLERIGYLSYVFGGGTKLTVLGSGGSNPICKGCLSCSKDNGCSRCQQKLFFFLRREGMRQYGECLHSCPSGYYGHRAPDMNRCARCRIENCDSCASKDACTKCKVGFYLHRGRCFDECPDGFAPLEETMECVEGGDYKDDDDKGSHHHHHHHH
- STF reporter activity of purified protein, Huh-7 cells: ~3 fold
- luciferase activity, Super Top Flash (STF) Wnt reporter, Huh-7 cells, transient transfection, versus mock transfection: ~20 fold
